Measured values published in PMC4336329 (PLoS ONE, 2015).
Hit rate of the full screen: of about 310,000 compounds, about 14,000 (4.5%) showed an effect of 50% or more. Effects have a minus sign here. This is one part of the list. *1 amine or outer side, *2 acyl side, *3 side chain or, on linkers, in order; H or OH if unused. Where a SMILES comes first, the peptide text is derived from it. Bridges are numbered along the chain shown (N, C = ends). [ ]: non-standard residue; d: D form. ξ: configuration not given here. hSer(Ph(2-I,4-NO2,6-CO)) = O=C([C@H](CCOc1c(I)cc([N+](=O)[O-])cc1C(=O)[*:3])N[*:1])[*:2]; ξD = NC(CC(=O)O)C(=O)O

biological target: human ether-à-go-go-related gene (hERG) potassium channel (human, UniProt Q12809); assay: primary screen, population patch clamp on CHO cells stably expressing hERG
Sequence (Q12809 whole entry, looked up): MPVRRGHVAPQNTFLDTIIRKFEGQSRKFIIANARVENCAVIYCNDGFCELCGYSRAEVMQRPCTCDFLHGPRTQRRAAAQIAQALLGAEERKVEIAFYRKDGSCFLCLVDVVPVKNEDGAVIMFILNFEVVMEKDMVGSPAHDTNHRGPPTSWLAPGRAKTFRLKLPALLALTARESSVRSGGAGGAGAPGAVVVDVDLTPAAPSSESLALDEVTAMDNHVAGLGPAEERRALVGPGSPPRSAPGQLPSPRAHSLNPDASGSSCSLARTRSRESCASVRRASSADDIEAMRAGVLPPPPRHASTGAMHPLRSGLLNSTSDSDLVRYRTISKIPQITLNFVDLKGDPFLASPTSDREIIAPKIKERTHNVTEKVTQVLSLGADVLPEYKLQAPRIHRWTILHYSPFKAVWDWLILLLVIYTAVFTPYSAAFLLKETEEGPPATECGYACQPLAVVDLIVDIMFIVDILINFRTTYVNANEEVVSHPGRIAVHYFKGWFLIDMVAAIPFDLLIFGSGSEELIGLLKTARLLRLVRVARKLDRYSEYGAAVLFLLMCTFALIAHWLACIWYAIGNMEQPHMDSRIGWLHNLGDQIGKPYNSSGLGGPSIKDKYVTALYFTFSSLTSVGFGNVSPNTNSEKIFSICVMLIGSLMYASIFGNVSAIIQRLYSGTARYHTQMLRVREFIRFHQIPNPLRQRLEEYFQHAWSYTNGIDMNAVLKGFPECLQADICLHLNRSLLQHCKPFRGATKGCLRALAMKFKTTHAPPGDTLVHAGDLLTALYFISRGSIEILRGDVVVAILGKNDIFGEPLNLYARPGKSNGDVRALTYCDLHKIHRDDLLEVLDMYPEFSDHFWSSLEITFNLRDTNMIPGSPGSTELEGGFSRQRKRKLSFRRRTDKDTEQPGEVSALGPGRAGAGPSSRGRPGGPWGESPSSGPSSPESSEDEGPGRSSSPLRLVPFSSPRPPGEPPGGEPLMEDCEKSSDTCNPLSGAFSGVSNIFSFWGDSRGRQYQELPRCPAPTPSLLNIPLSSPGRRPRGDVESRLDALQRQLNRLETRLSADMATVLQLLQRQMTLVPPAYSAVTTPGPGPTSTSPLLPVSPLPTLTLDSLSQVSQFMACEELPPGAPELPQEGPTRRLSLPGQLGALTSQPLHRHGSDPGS
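Further: peak tail current of the secondary pulse compared with the same well before compound.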

Row | Structure (SMILES) | hERG current change (%, negative = inhibition) at 10uM [%]
1 | O=C(CSc1nnc(CNC(=O)c2ccco2)o1)c1ccc(Cl)cc1 | -21.2
2 | COCCn1c(SCC(=O)OC(C)C)nnc1-c1ccccc1 | -4.14
3 | Cc1nn(-c2ccccc2)c2nc(-c3cccs3)cc(C(=O)NN)c12 | 25.6
4 | O=C(COc1cccnc1[N+](=O)[O-])Nc1ccc2c(c1)OCO2 | 6.1
5 | O=C(Nc1ccccc1)c1cc(N2CCOCC2)nc2ccccc12 | 1.76
6 | COc1cccc(CNC(=O)c2nnn(CC(=O)Nc3ccc4c(c3)OCO4)c2N)c1 | 6.44
7 | CCn1c(O)c(/C(C)=N/N2CCCCC2c2cccnc2)c(=O)[nH]c1=S (stereo not drawn) | -55.2
8 | Cn1c(SCC(=O)NCc2cccs2)nnc1-c1ccc(O)cc1 | 27.7
9 | CCOC(=O)c1cccc(NC(=O)CCc2nnc3ccc(N4CCOCC4)nn23)c1 | 7.99
10 | COc1ccc(/C(C)=N/Nc2nccnc2Cl)cc1 | -27
11 | Cc1c(OC(C)C(=O)NCCN2CCOCC2)ccc2c(-c3ccccc3)cc(=O)oc12 (stereo not drawn) | -39.7
12 | Cc1ccc2cc(CN(Cc3ccco3)C(=O)NC3CCCCC3)c(=O)[nH]c2c1C | -37
13 | Cc1ccc(NC(=O)CN2C(=O)NC3(CCCc4ccccc43)C2=O)c([N+](=O)[O-])c1 (stereo not drawn) | -75.6
14 | CC(C)(C)NC(=O)c1cc(-c2ccccc2)n[nH]1 | 11.5
15 | COc1ccc(C(=O)Nc2ccc(S(=O)(=O)Nc3onc(C)c3C)cc2)cc1 | 9.91
16 | CCOC(=O)C1CCN(S(=O)(=O)c2ccc(C)c(C)c2)CC1 | -6.16
17 | NC(=O)C(CC(=O)O)NC(=O)[C@@H]1CCOc2c(I)cc([N+](=O)[O-])cc2C(=O)N[C@@H](CCC(=O)O)C(=O)N[C@@H](CO)C(=O)N1 (stereo partly drawn) (ES[hSer(Ph(2-I,4-NO2,6-CO))][ξD]-NH2; lactam N-3) | -5.73
18 | CCOC(=O)N1CCC(NC(=O)CS(=O)Cc2nc(-c3ccccc3C)oc2C)CC1 (stereo not drawn) | -42.3
19 | Cc1ccc(-c2nnc(SCC#CCOC(=O)c3ccco3)o2)cc1 | -6.36
20 | Cc1cc(C)c2c(=O)cc(C(F)F)oc2c1 | 0.766
21 | CCOC(=O)c1cc(CC)sc1NC(=O)CC1Sc2ccc(C(F)(F)F)cc2NC1=O (stereo not drawn) | 21.1

Row | Structure (SMILES) | hERG current change (%, negative = inhibition) at 10uM [%]
22 | O=C(OCc1ccc(Cl)c(Cl)c1)c1cccnc1Cl | 11.2
23 | C=CCSC1=C(C#N)C(c2ccccc2Cl)C(C(=O)c2cccs2)C(O)(C(F)(F)F)N1 (stereo not drawn) | -4.55
24 | O=C(CSCCNS(=O)(=O)c1ccccc1)Nc1ccccc1 | 2.15
25 | CC1CN(C(=O)c2cccc(Oc3ccccc3)c2)CC(C)O1 (stereo not drawn) | 12.1
26 | CC(=O)c1ccc(NC(=S)N2CCCC2)cc1 | 7.4
27 | CCCCN1C(=O)N(c2ccccc2Cl)C(C)(O)CC1(C)C (stereo not drawn) | 11.5
28 | Cc1cccc(NC(=O)c2ccc(S(=O)(=O)C(F)F)cc2)c1C | 8.55
29 | CN(C)c1nc(SCc2ccccc2Cl)nc2c1CCCC2 | 5.96
30 | COc1ccc(-c2noc(N3CCC(C(=O)Nc4ccc(F)cc4)CC3)n2)cc1 | -6.33
31 | N/C(=N\OC(=O)Cc1cccs1)c1ccc([N+](=O)[O-])cc1 | -24.4
32 | CC(=O)Nc1cc(C(=O)N2CCC3(CC2)OCCO3)ccc1Sc1ccc(C)cc1 | -16
33 | C=CCn1c(-c2cccnc2Cl)nc2cc(Cl)c(Cl)cc21 | -4.91
34 | O=C(COC(=O)c1cncc(Br)c1)NC1CCCC1 | 3.31
35 | COc1ccc(NS(=O)(=O)c2cccc(NC(=O)NC3CCCCC3)c2)cc1 | -4.21
36 | N/C(Cc1ccc([N+](=O)[O-])cc1)=N\OC(=O)c1cccc(Br)c1 | -58
37 | C[C@@H](Oc1ccccc1)c1nnn(Cc2ccccc2)c1-c1c([C@@H](C)Oc2ccccc2)nnn1Cc1ccccc1 | -2.33
38 | CC(C)Oc1ccc(CN2CCC(n3nccc3NC(=O)CCc3ccccc3)CC2)cc1 | -82.3
39 | COc1ccccc1OCc1ccc(C(=O)NN)cc1 | 0.68
40 | CC(C)CNC(=O)NC(=O)COC(=O)COc1ccc(Cl)cc1Cl | 9.46
41 | Cc1ccc(-n2ncc3c(NNC(=O)c4ccco4)ncnc32)cc1Cl | 18.4
42 | c1ccc2c(c1)CCN(c1nc3cc4c(cc3s1)OCO4)C2 | 12.9

Row | Structure (SMILES) | hERG current change (%, negative = inhibition) at 10uM [%]
43 | O=C(CCc1ccncc1)NC1CCCc2c1cnn2-c1ccc(F)cc1F (stereo not drawn) | -12.5
44 | COc1ccc(NC(=O)COC(=O)[C@@H](NC(=O)c2c(F)cccc2F)C(C)C)cc1 | 9.54
45 | CCOC(=O)c1c(C)[nH]c(C)c1C(=O)COC(=O)c1ccc(Cl)c(S(=O)(=O)NCc2ccccc2)c1 | -5.18
46 | Cc1ccc(CNC(=O)C2CC(c3ccccc3C(F)(F)F)=NO2)cc1 (stereo not drawn) | -26.8
47 | CC(=O)c1ccc(NC(=O)N[C@@H](CC(C)C)C(=O)O)cc1 | 2.99
48 | CCS(=O)(=O)Nc1cccc(C2=NN(S(=O)(=O)c3ccc(C)cc3)C(c3cccs3)C2)c1 (stereo not drawn) | -7.69
49 | COc1cc(NC(=S)NCCC(c2ccccc2)c2ccccc2)c(OC)cc1Cl | 13.4
50 | CCOC(=O)CC(=O)Nc1ccc(C(=O)OCC)cc1 | -18.3
51 | CCc1ccc(-c2cc(C)no2)cc1S(=O)(=O)N1CCC(C)CC1 | -15.8
52 | O=S(=O)(c1ccccc1)n1c(C(O)c2ccccn2)cc2ccccc21 (stereo not drawn) | -10.5
53 | O=C(N[C@@H](Cc1ccccc1)C(=O)NCc1ccc(F)cc1)C1CCNCC1 | 22.6
54 | COc1ccc(OC)c(C(=O)NC(CC(N)=O)c2ccc(NCCN3CCCCC3)c([N+](=O)[O-])c2)c1 (stereo not drawn) | -6.09
55 | O=S(=O)(N=S(N1CCCCC1)N1CCCCC1)c1ccccc1 | -8.09
56 | CC[n+]1c(C)sc2sc3ccccc3c21.[I-] | 4.79
57 | COc1ccccc1-n1c(SCC(=O)NCC2CCCO2)nc2c([nH]c3ccccc32)c1=O (stereo not drawn) | 9.22
58 | Cc1ccc(-c2cnc(N)n2C)cc1C | -7.74
59 | COc1ccc(-c2c[n+]3c(n2-c2ccccc2)SCC3)cc1OC.[Br-] | 4.92
60 | Cc1ccc(CNC(=O)CCCn2c(=O)[nH]c3ccccc3c2=O)cc1 | 14.5
61 | COc1ccc(C(=O)NCc2ccc(-c3nc4ccccc4s3)cc2)cc1OC | 2.25
62 | CCOC(=O)C(OC(=O)c1sc(=S)n(C)c1C)C(C)=O (stereo not drawn) | 16.9
63 | COc1ccc(S(=O)(=O)NC2CC(C)(C)NC(C)(C)C2)cc1 | 7.36

Row | Structure (SMILES) | hERG current change (%, negative = inhibition) at 10uM [%]
64 | CCc1nnc(NC(=O)c2cc(S(=O)(=O)N(C)c3ccc(OC)cc3)ccc2Cl)s1 | 3.48
65 | CCOC(=O)c1cc2c(=O)n3ccccc3nc2n(C(C)C)c1=NC(=O)c1c(-c2c(F)cccc2Cl)noc1C | 2.48
66 | O=C(C1=C[C@H](c2csc3ccccc23)C[C@H](OCCCCO)O1)N1CCOCC1 | -14.1
67 | Cc1ccc(C(=O)c2sc3c(c2N)c(=O)[nH]c(=O)n3CCc2ccccc2)cc1 | 12.2
68 | CC(NC(=O)C1CCN(S(=O)(=O)N2CCC3(CC2)OCCO3)CC1)c1ccccc1 (stereo not drawn) | 20.9
69 | COc1c(O)c(O)c2oc(-c3ccccc3)cc(=O)c2c1OC | -0.202
70 | CCCCN(CCCNC(=O)C1CCN(C(=O)c2cc3sccc3n2C)CC1)Cc1ccccc1 | -60.8
71 | Cc1c(F)cccc1NC(=O)CCC(=O)O | 12.1
72 | COc1ccc(/C=C/C(=O)c2c(O)ccc3c(C)cc(=O)oc23)cc1 | -8.25
73 | Cc1c(C(=O)NNS(=O)(=O)c2ccccc2Cl)sc(=S)n1C | 3.32
74 | CC/C=C/C(=O)N1CC2(CC(c3cccc(NC(=O)CCCCC)c3)=NO2)C[C@H]1C(N)=O (stereo partly drawn) | -3.68
75 | Cc1ccc(Cl)c(OCCCCN(C)Cc2ccccc2)c1.O=C(O)C(=O)O | -43.8
76 | COc1ccc(OC)c(NC(=O)CSc2nnc3ccc(-c4ccncc4)nn23)c1 | -48.7
77 | CCc1noc(C)c1C(=O)Nc1ccc(S(=O)(=O)N2CCCCC2)cc1 | -7.54
78 | O=C(c1ccc(NS(=O)(=O)c2ccc(Cl)cc2)cc1)N1CCOCC1 | 3.98
79 | Cc1ccc(C)c(CSC2=NN3CCCC(=O)N=C3S2)c1 | -35.1
80 | O=C(NC1CCCCC1)N1CCCC(c2nc(-c3ccc(S(=O)(=O)N4CCCC4)cc3)no2)C1 (stereo not drawn) | 2.14
81 | Cc1ccc(C(=O)NCC(c2ccco2)N2CCc3ccccc32)cc1 (stereo not drawn) | -13
82 | CC(=O)Nc1ccc(NC(=O)c2c(C)nn(-c3ccccc3)c2Cl)cc1C | 10
83 | C=CCn1c(O)c(N=NC(=O)c2cccnc2)c2cc(Br)ccc21 | -16.1
84 | O=C1c2ccccc2NC(c2ccccc2)N1CCCN1CCOCC1 (stereo not drawn) | -7.32
